Measured values: the supplement of paper PMC3724861
The list shows a part of the results.

tested on: T1, Caupolican (Caup) homeodomain DNA-binding domain; experiment: PBM E-score (8-mer, recovered from the published 9-mer minima) (E-score (dimensionless, -0.5 to 0.5)); Drosophila protein; higher = stronger relative binding preference, active = 0.31 or more
T1 sequence: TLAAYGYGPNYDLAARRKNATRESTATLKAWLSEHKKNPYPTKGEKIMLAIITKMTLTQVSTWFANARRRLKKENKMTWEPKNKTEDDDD
How it was run: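 Caup's homeodomain DNA-binding domain (residues 214-303) was made by in vitro transcription and translation and applied at 100 nM to custom-designed protein binding microarrays. Each value is an enrichment score that gives relative binding preference for a short DNA word, with higher meaning stronger. The 8-mer values were recovered from published 9-mer scores, each of which was the minimum of its two constituent 8-mer scores. A cutoff of 0.31 marks candidate sites.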

Row | Sequence | PBM E-score
1 | CGCCTCAA | inactive: -0.163
2 | CACTTTTA | inactive: 0.0205
3 | TACTAATA | inactive: 0.195
4 | GGCATGAC | inactive: -0.077
5 | ATAACTAT | inactive: 0.175
6 | CTCATCTC | inactive: -0.158
7 | GCGCGCAC | inactive: -0.11
8 | CGGTGACG | inactive: -0.0368
9 | CCTTAGCG | inactive: -0.179
10 | GCCCAGAA | inactive: -0.132
11 | CCAGCGGC | inactive: -0.182
12 | CTAGTAGC | inactive: 0.00748
13 | ACTCATAC | inactive: 0.102
14 | CTTAGACA | inactive: 0.0709
15 | CCAACACA | inactive: 0.17
16 | TATTTGAA | inactive: 0.0785
17 | ATTGAAGC | inactive: 0.0795
18 | AATCGCAT | inactive: 0.14
19 | AAGGTCTA | inactive: -0.112
20 | ACTACGAG | inactive: 0.051
21 | CCGCTGAA | inactive: -0.0918
22 | CCTGCTCA | inactive: 0.0153
23 | AAGTAACA | inactive: 0.306
24 | AAAAAGGT | ≥ 0.0466
25 | GCCTTGAC | inactive: -0.166
26 | AAAGACTG | inactive: -0.0766

Row | Sequence | PBM E-score
27 | GTCGTGCA | inactive: 0.137
28 | AAGCCTTA | inactive: -0.145
29 | AGGGTAGG | inactive: -0.0919
30 | AGTGGTTA | inactive: 0.151
31 | CCATACGC | inactive: -0.0602
32 | ACTTGGTA | inactive: 0.117
33 | ATACAGTG | inactive: 0.152
34 | GGGGTACC | inactive: -0.194
35 | CTGGGGAC | inactive: -0.201
36 | AGTTATTC | inactive: 0.135
37 | GGGCTTAA | inactive: -0.171
38 | TAGTAGAA | inactive: 0.0196
39 | ATTGTAGA | inactive: 0.214
40 | GCGGCGAA | inactive: -0.133
41 | ACGATCAA | inactive: 0.145
42 | GCTGACCC | inactive: -0.159
43 | GAGATCGA | inactive: 0.0226
44 | CAACTGGC | inactive: -0.0785
45 | CCTCCACC | inactive: -0.213
46 | ACTTTACT | inactive: 0.00848
47 | ACGGAGCA | ≥ -0.0071
48 | TCTACTAA | inactive: 0.062
49 | CAATACCA | inactive: 0.153
50 | GGTAGAGA | inactive: -0.0903
51 | AAATCGCG | inactive: -0.00018
52 | TCCATCGA | inactive: -0.0338

Row | Sequence | PBM E-score
53 | TGCGCGAA | inactive: 0.0393
54 | CGAGGACG | inactive: -0.159
55 | GTACCAAA | inactive: 0.117
56 | GGGTTGTA | inactive: 0.26
57 | GATTCGAC | inactive: 0.104
58 | ATGGATCC | inactive: 0.0296
59 | TCGGAAGA | inactive: -0.0036
60 | GTCCGGTA | inactive: 0.00302
61 | ATTTACCG | inactive: 0.0622
62 | CGTATTTC | inactive: 0.0429
63 | GGCTCTTA | inactive: -0.0548
64 | CATATGCG | inactive: 0.088
65 | AACCTCAA | inactive: 0.0625
66 | AGAAGCGA | ≥ -0.0139
67 | CAATCAGA | inactive: 0.0415
68 | CACACTGG | inactive: -0.0163
69 | ACAGTCAG | inactive: -0.0033
70 | CACCAACC | inactive: -0.0462
71 | ACAATTAA | inactive: 0.152
72 | CGTGTCGC | inactive: 0.265
73 | AAGAGCAC | inactive: 0.0428
74 | CCACGCGA | inactive: -0.113
75 | GAGCCATA | inactive: -0.0461
76 | AAACCATA | ≥ 0.126
77 | CCAAGGGG | inactive: -0.222
78 | GATAGTGA | inactive: 0.039

Row | Sequence | PBM E-score
79 | CTCGCTAC | inactive: -0.0641
80 | GAGCTAGC | inactive: -0.0595
81 | AAGATGAG | inactive: -0.0391
82 | ATAACAGG | inactive: 0.155
83 | CGGGAGTC | inactive: -0.129
84 | CGTTAACA | inactive: 0.164
85 | AATAACGT | inactive: 0.135
86 | GCGAAAAC | inactive: -0.102
87 | CATGGATA | inactive: 0.157
88 | AACACTTA | inactive: 0.208
89 | CTGGGCGA | inactive: -0.196
90 | AAGGCGAT | ≥ -0.0088
91 | ATCGCGAA | inactive: -0.00496
92 | CGAGAAGA | inactive: -0.0787
93 | CGAAATCA | inactive: 0.113
94 | GCCTCACA | inactive: -0.0407
95 | CGAGTTGC | inactive: 0.00414
96 | ATCGACCG | inactive: -0.0554
97 | ATCTGCAT | inactive: 0.107
98 | ACTGTTAT | inactive: 0.161
99 | AAGTAACT | inactive: 0.101
100 | TCAAAAAA | inactive: 0.0309
101 | AGTGATAG | inactive: 0.0983
102 | TGCACGAA | inactive: 0.129
103 | ACAAACGA | ≥ 0.148
104 | TCAGTGGA | inactive: -0.0671

Row | Sequence | PBM E-score
105 | CCAGCCGG | inactive: -0.247
106 | AGGTAAGC | inactive: -0.095
107 | TCAACCCA | inactive: -0.0421
108 | ATGAGTGA | ≥ 0.0935
109 | GCAGCCAA | inactive: -0.0315
110 | CATGGGGC | inactive: -0.118
111 | CAGAAGTA | inactive: 0.068
112 | CTCGGCTC | inactive: -0.153
113 | ATTCTGAC | inactive: 0.0764
114 | CCAGAATC | inactive: -0.0272
115 | GCTCTAAC | inactive: -0.0729
116 | CACTGAGG | inactive: -0.148
117 | GATAATCA | inactive: 0.0651
118 | AATTGAAA | inactive: 0.073
119 | TGTAGTAA | active: 0.376
120 | CATCATTC | inactive: 0.0951
121 | ATGTGAAG | inactive: 0.163
122 | CTTGACTA | inactive: 0.0303
123 | AGCTGGAA | inactive: -0.0742
124 | CCGAAACA | inactive: 0.125
125 | ATTCCTCA | inactive: 0.0774
126 | ACACGTCA | active: 0.325
127 | ACGCACAT | ≥ 0.108
128 | ATAGATAG | inactive: 0.0932
129 | TACGGGCA | ≥ -0.014
130 | CTCGCGAC | inactive: -0.0978

Row | Sequence | PBM E-score
131 | CCAAGACA | inactive: 0.0664
132 | AGTATCAT | inactive: 0.238
133 | AGTCTTTA | inactive: 0.0559
134 | AGACGGCG | inactive: -0.18
135 | CTCATGAC | inactive: 0.0559
136 | AACTAGCG | inactive: -0.00906
137 | AATCTGTG | inactive: 0.071
138 | AGGCGTGG | inactive: -0.284
139 | AACCAGTC | inactive: 0.00925
140 | CCAAGCAG | inactive: -0.157
141 | ACACTCCA | inactive: 0.0415
142 | GGATCTAA | inactive: -0.071
143 | CGCTTACG | inactive: -0.151
144 | ATTACGTG | inactive: 0.16
145 | GAGGGATA | inactive: -0.0315
146 | CTAACCCC | inactive: -0.214
147 | GTCGGCTA | inactive: -0.0125
148 | GGATCGTA | inactive: 0.0632
149 | CCATTGAA | inactive: 0.0124
150 | CTATCAGC | inactive: 0.0543
151 | GTTTGATA | inactive: 0.137
152 | CGCAATTA | inactive: -0.0107
153 | AAAGTACG | inactive: -0.0302
154 | GTCATACA | inactive: 0.233
155 | AATAGTAG | inactive: 0.0364
156 | ACAAAGCT | inactive: 0.0752

Row | Sequence | PBM E-score
157 | ACTTTCAC | ≥ 0.0535
158 | CAACCGTC | inactive: -0.0286
159 | CCTAGCGC | inactive: -0.199
160 | AACACACT | inactive: 0.256
161 | AGTGCATG | inactive: 0.0912
162 | ATATCGCC | inactive: 0.0522
163 | GCCTTCAA | inactive: -0.0384
164 | ATATTGCA | inactive: 0.104
165 | TAGCCAAA | inactive: -0.0244
166 | CTCTAGTC | inactive: -0.0877
167 | TGACCCAA | inactive: 0.0379
168 | ATTATACC | inactive: 0.104
169 | AGCTGGCA | inactive: -0.13
170 | AGGGGGTA | inactive: -0.211
171 | CCTTGCGA | inactive: -0.125
172 | ATCAGAAC | inactive: 0.107
173 | AAACTGGC | inactive: -0.096
174 | GCAACGGC | inactive: -0.0473
175 | CTTTCGAC | inactive: -0.0343
176 | ATACGGGG | inactive: -0.0872
177 | AGTCGGAG | inactive: -0.15
178 | GGCACGTA | inactive: 0.00967
179 | AGCCCTGG | inactive: -0.211
180 | GGCCCTCA | inactive: -0.313
181 | GCCACTAC | inactive: -0.152
182 | ACACATTA | inactive: 0.267

Row | Sequence | PBM E-score
183 | ACGCATAA | inactive: 0.0794
184 | ACCGTCAC | inactive: -0.111
185 | CTTAGGCA | inactive: -0.0925
186 | TATGCGAA | inactive: -0.0523
187 | CGTTGTAG | inactive: 0.154
188 | AACGCTTA | inactive: -0.0409
189 | GACATCTC | inactive: 0.159
190 | AAGAGGTA | inactive: 0.0556
191 | CTGGGGTC | inactive: -0.163
192 | CGCTATTA | inactive: 0.036
193 | AGGTATCG | inactive: -0.0139
194 | CATTTGGG | inactive: -0.0406
195 | AAGTCTAT | inactive: 0.0708
196 | CAAAGGAA | inactive: 0.131
197 | GAGCCGTA | inactive: -0.076
198 | GCAATTCA | inactive: -0.0152
199 | CGCACGTC | inactive: -0.0953
200 | CACCAATA | inactive: 0.0966
201 | ACCAGATA | ≥ 0.153
202 | AGACTAAT | inactive: 0.0912
203 | TAGAGTGA | inactive: 0.00292
204 | CATGTAAC | active: 0.431
205 | ACCTGCTC | inactive: -0.00329
206 | CCCCACTC | inactive: -0.193
207 | AGCTGGCG | inactive: -0.198
208 | AACTAGGT | ≥ 0.123

Row | Sequence | PBM E-score
209 | CCTGGACG | inactive: -0.136
210 | ACGCAATC | inactive: -0.0194
211 | ACGTTCCA | inactive: 0.0136
212 | AATGACTG | inactive: 0.0933
213 | AACTGAGG | inactive: -0.0316
214 | GGTGAACA | inactive: 0.183
215 | AGCAATTA | inactive: 0.0226
216 | GCGCCTTA | inactive: -0.112
217 | AACCACAA | inactive: 0.0387
218 | AGGTACAA | active: 0.345
219 | CGAAGCCA | inactive: -0.167
220 | ATTCCGAC | inactive: 0.0514
221 | CGACAGAC | inactive: 0.0543
222 | CGGAGGCA | ≥ -0.131
223 | AAATCTCT | inactive: 0.0724
224 | GTAACTAC | inactive: 0.296
225 | AACCTGTA | inactive: 0.217
226 | AGTGGACG | inactive: 0.00183
